Assay results published in the supplement of paper PMC12217912.
The list shows a part of the results. Sequences were assembled here from the parent chain. Values near 0.05 are background.

B1: TEV protease; numbered along this chain (parent)
chain: MGESLFKGPRDYNPISSSICHLTNESDGHTTSLYGIGFGPFIITNKHLFRRNNGTLVVQSLHGVFKVKDTTTLQQHLVDGRDMIIIRMPKDFPPFPQKLKFREPQREERICLVTTNFQTKSMSSMVSDTSCTFPSGDGIFWKHWIQTKDGQCGSPLVSTRDGFIVGIHSASNFTNTNNYFTSVPKNFMELLTNQEAQQWVSGWRLNADSVLWGGHKVFMVKPEEPFQPVKEATQL

Variants of: B1
Assay: raw area under fraction-flipped curve 0-4 h after induction (AUC4h, not background-subtracted), DNA-recorder readout of cleavage of the substrate (dimensionless); higher = more cleavage of the substrate by the protease variant
Conditions: temperature: 34 °C; time window: 0-4 h after rhamnose induction
Method: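 In vivo DNA recorder in E. coli TOP10(DE3) ΔrhaA at 34 °C. Each TEVp single-site mutant (parent TEVp 0) is paired with a single-site variant of the 7-mer TEVs (canonical ENLYFQ|S). The substrate sits between flexible linkers in a Bxb1-sfGFP-TEVs-SsrA fusion, so cleavage stabilises Bxb1 and speeds flipping of a recombination array, read by NGS. The value is the raw area under the fraction-flipped curve over 0-4 h after rhamnose induction (AUC4h), with ≥20 reads per time point. It is not background-subtracted; inactive controls average about 0.047.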
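Further: Bxb1 expression induced with 0.2% (w/v) L-rhamnose at OD600 near 0.5, cultures sampled hourly, flipped fraction per protease–substrate barcode pair counted by paired-end Illumina sequencing.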

Variant	area with substrate ENLYFCS	area with substrate ENLYFDS	area with substrate ENLYFES	area with substrate ENLYFFS	area with substrate ENLYFGS	area with substrate ENLYFIS	area with substrate ENLYFKS	area with substrate ENLYFMS	area with substrate ENLYFNS	area with substrate ENLYFPS	area with substrate ENLYFRS	area with substrate ENLYFTS	area with substrate ENLYFWS	area with substrate ENLYFVS	area with substrate ENLYFHS	area with substrate ENLYFLS	area with substrate ENLYFSS	area with substrate ENLYFYS
E195C	0.0576	0.0619	0.0679	0.0673	0.0695	0.0562	0.0585	0.0727	0.0671	0.042	0.0629	0.0714	0.0836	–	–	–	–	–
K148T	0.0568	0.0661	0.0375	0.0689	0.0412	0.0528	–	0.0614	0.0516	–	0.0882	0.0623	0.0581	0.0605	–	–	–	–
G213A	0.0512	–	0.0532	0.063	0.0551	0.0563	0.0654	0.0603	0.0663	0.0485	0.0563	0.059	–	0.0606	0.0487	0.039	0.0579	0.0576
T192D	0.0411	0.0697	–	–	0.0828	0.0439	0.0573	0.0565	0.0579	–	0.0605	0.069	0.068	–	–	–	0.0423	–
S169A	0.0554	–	0.0639	–	–	0.0518	0.0527	0.0637	–	0.0965	–	0.0631	0.0356	0.0466	0.0494	0.0473	–	–
V67R	0.0559	0.0838	0.041	0.0592	–	0.0479	–	0.0384	0.0614	0.0518	0.0295	0.0448	0.0495	–	0.0611	0.0545	–	0.0531
N52I	0.0493	–	0.0512	–	–	0.0509	–	0.0679	–	0.0554	–	–	–	–	0.0533	–	–	–
S18Y	0.0539	0.0481	0.0628	–	–	0.057	0.067	0.073	–	0.0466	0.0524	–	0.0651	–	–	–	0.0558	0.0604
H29Y	0.0649	0.0634	–	0.0587	0.0576	0.0538	–	0.0692	0.0589	0.0748	–	0.0596	–	0.0619	–	–	0.0528	–
M122K	0.069	–	0.0654	0.0658	–	0.0595	–	0.081	–	0.0549	–	0.059	0.0559	0.0563	0.0514	–	–	–
V113H	–	0.0573	–	0.0677	–	0.0663	0.0577	0.0719	0.062	0.0516	0.0603	0.0697	0.0444	0.0112	0.0496	0.066	0.0743	0.0564
N52T	–	0.0555	0.0546	0.0655	–	0.0605	0.0631	0.0657	0.0718	0.0577	0.0517	–	0.09	–	–	0.0509	0.0461	0.0575
P94Y	–	0.0518	0.0833	0.0775	–	0.0548	0.0591	0.0657	–	0.0548	–	0.0539	–	–	–	0.055	0.0447	0.0683
E189I	–	0.0531	–	–	0.0617	–	–	–	0.0766	0.0619	0.0627	0.0747	0.0515	0.0969	0.0811	–	–	0.0577
G136P	–	0.0627	0.0752	0.0256	–	–	–	0.0596	–	–	0.0862	0.0604	–	–	0.0511	–	–	0.06
S135D	–	0.0505	–	0.0759	0.0463	0.0484	–	–	0.0706	0.0558	0.0603	0.0593	0.0574	–	0.0642	0.0685	0.0585	0.0454
H47A	–	0.0166	–	0.0747	–	0.0478	–	0.0658	0.0652	0.0642	–	0.0679	–	–	–	–	–	–
N178I	–	0.0624	–	0.0664	–	–	–	–	–	–	0.0619	–	–	–	–	–	–	–
P222G	–	0.0495	0.0623	0.0703	–	0.0778	0.0634	–	0.0652	0.0579	–	–	0.0547	0.0836	–	0.0637	–	0.0593
M188C	–	0.0573	0.0628	0.0569	–	0.0671	–	0.0655	0.0652	0.0691	0.0732	0.073	0.0604	–	–	–	0.0675	–
G28H	–	0.0446	0.0665	0.0118	0.0578	0.0645	0.0741	–	0.057	0.0612	0.0649	–	0.0614	0.0471	–	0.0544	0.0675	0.0505
Y34C	–	0.0445	–	0.0553	0.0541	0.0514	–	0.0658	0.0644	0.069	–	0.0564	0.0685	0.0898	0.0516	0.0546	0.0723	0.052
T72P	–	0.0544	0.0371	0.0661	–	0.057	0.0571	–	0.0584	–	0.0678	–	0.0549	0.0065	–	0.0695	–	0.0285
N52F	–	0.0583	–	0.0811	0.0752	0.0538	0.0722	0.0567	0.065	0.0537	–	0.056	0.0561	0.0511	0.0683	0.0702	0.0615	0.0605
S121A	–	0.0459	0.0662	0.073	–	0.0528	–	0.0646	–	0.0573	–	0.0686	0.0497	0.0688	–	0.0736	0.058	–
W203R	–	0.0464	0.0661	0.0551	0.0659	0.0532	–	0.0383	0.0448	–	–	0.0578	0.0678	0.0591	0.051	–	0.0578	–
P222M	–	0.0512	0.0504	0.0578	–	0.0449	0.0603	0.056	–	–	–	0.0587	0.0342	–	0.0557	–	0.0609	0.0579
V210K	–	0.0552	0.0594	0.055	–	0.057	–	–	–	0.0611	0.0588	0.0611	0.0544	0.0584	–	–	0.0558	0.064
N24K	–	0.0647	0.0591	0.0656	–	0.0592	0.0732	0.0613	0.0612	0.0624	0.0599	0.0574	0.0469	0.0658	0.0372	0.0503	–	0.0517
S135I	–	0.059	0.0605	0.0674	–	0.0545	0.0483	0.0629	–	0.0596	–	–	0.0771	–	0.0494	0.0624	0.0612	0.0624
